Reference: the supplement of paper PMC4996465
Viability of KB3-1 and Nalm-6 cells after 48 h of drug alone (CellTiter-Glo), 11 doses over about 4.5 log units. % of DMSO wells, lower = more cell loss; AC50 from the fitted curve, lower = more potent. No active / inactive call. Nalm-6 was screened in two runs. AC50 is listed only for well-fitted inhibitory curves. KB3-1 is a HeLa-derived carcinoma line, Nalm-6 a B-cell precursor leukaemia line.

Tests used:
KB3-1 [1] = experiment: viability (% of DMSO control); higher = more viable cells
Description: (§1)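 Eleven-dose screen of the NCATS MIPE 3 library on cells without co-treatment; CellTiter-Glo after 48 h, as % of DMSO wells.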

Nalm-6 [2] = experiment: as above
Description: as §1

KB3-1 [3] = experiment: log AC50 of viability decrease (48 h) (log10 M); higher = less potent
Description: (§2)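 Eleven-dose screen of the NCATS MIPE 3 library on cells without co-treatment; CellTiter-Glo after 48 h. AC50 from the curve fit; only inhibitory curves of the better fit classes are listed.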

Nalm-6 [4] = experiment: as above
Description: as §2

Structure (SMILES)	viability (KB3-1 [1]; 0.00078 µM)	viability (KB3-1 [1]; 0.00234 µM)	viability (KB3-1 [1]; 0.00702 µM)	viability (KB3-1 [1]; 0.0211 µM)	viability (KB3-1 [1]; 0.0632 µM)	viability (KB3-1 [1]; 0.19 µM)	viability (KB3-1 [1]; 0.569 µM)	viability (KB3-1 [1]; 1.71 µM)	viability (KB3-1 [1]; 5.12 µM)	viability (KB3-1 [1]; 15.4 µM)	viability (KB3-1 [1]; 46.1 µM)	viability (Nalm-6 [2]; run: 1, 0.00078 µM)	viability (Nalm-6 [2]; run: 1, 0.00234 µM)	viability (Nalm-6 [2]; run: 1, 0.00702 µM)	viability (Nalm-6 [2]; run: 1, 0.0211 µM)	viability (Nalm-6 [2]; run: 1, 0.0632 µM)	viability (Nalm-6 [2]; run: 1, 0.19 µM)	viability (Nalm-6 [2]; run: 1, 0.569 µM)	viability (Nalm-6 [2]; run: 1, 1.71 µM)	viability (Nalm-6 [2]; run: 1, 5.12 µM)	viability (Nalm-6 [2]; run: 1, 15.4 µM)	viability (Nalm-6 [2]; run: 1, 46.1 µM)	viability (Nalm-6 [2]; run: 2, 0.00078 µM)	viability (Nalm-6 [2]; run: 2, 0.00234 µM)	viability (Nalm-6 [2]; run: 2, 0.00702 µM)	viability (Nalm-6 [2]; run: 2, 0.0211 µM)	viability (Nalm-6 [2]; run: 2, 0.0632 µM)	viability (Nalm-6 [2]; run: 2, 0.19 µM)	viability (Nalm-6 [2]; run: 2, 0.569 µM)	viability (Nalm-6 [2]; run: 2, 1.71 µM)	viability (Nalm-6 [2]; run: 2, 5.12 µM)	viability (Nalm-6 [2]; run: 2, 15.4 µM)	viability (Nalm-6 [2]; run: 2, 46.1 µM)	log AC50 of viability decrease (KB3-1 [3])	log AC50 of viability decrease (Nalm-6 [4]; run: 1)	log AC50 of viability decrease (Nalm-6 [4]; run: 2)
C=CC(=O)Nc1cc2c(Nc3ccc(F)c(Cl)c3)ncnc2cc1C#CC(C)(C)N1CCN(C)CC1 [AV-412]	102%	106%	102%	104%	97.8%	101%	103%	95.8%	81%	49.5%	-0.184%	120%	129%	125%	127%	122%	109%	86.8%	30.9%	2.24%	1.09%	-0.922%	107%	111%	113%	103%	101%	95.5%	70.1%	21.9%	1.05%	0.668%	-0.051%	-4.78	-6.03	-6.08
CC(C)Oc1cc(Nc2nc(N[C@@H](C)c3ccc(F)cn3)ncc2Cl)n[nH]1 [AZ-23]	107%	92.4%	105%	103%	99.7%	97.5%	95.3%	94.1%	87.9%	67.1%	16.2%	113%	115%	118%	122%	112%	114%	94.8%	95.4%	74%	66.5%	2.16%	106%	103%	108%	97.7%	103%	104%	95.9%	99.1%	83.1%	71.7%	1.66%	-4.68	-4.78	-4.68
CN1\C=N/C2=CC=C(NC3=CC(=CC=C3C)NC(=O)C4=CC(=CC=C4)C(C)(C)C#N)C=C2C1=O [AZ-628]	102%	104%	111%	100%	96.9%	97.6%	96.9%	93.5%	84%	85.4%	38%	107%	114%	113%	101%	99.9%	105%	95.5%	96%	84.2%	72%	6.55%	107%	107%	101%	108%	98.6%	102%	101%	98%	87.7%	82.1%	3.75%	-4.68	-4.73	-4.63
